Assay results as given in PubChem BioAssay AID1508649 (National Center for Advancing Translational Sciences (NCATS), 2021).
The campaign covered roughly 43,000 compounds. About 830 (1.9%) were called active. Inconclusive results, whose numbers are uncertain, are shown with a selection of clear calls. Rule for the calls: active = clear falling dose curves in both reporters; inconclusive = both reporters move, but less clearly or upward; inactive = either reporter flat; the % is the NLuc reporter signal. No potency is given beside an inconclusive call; the fits are too rough.

Assay: Cell-based coincidence reporter assay to measure PMP22 gene transcription in S16 Pmp22-F2sN cells - Primary screen
Details: S16 Pmp22-F2sN Schwann cells (luciferase reporters placed in the Pmp22 gene), FLuc/NLuc coincidence luminescence, 24 h; measured here: NLuc reporter readout, at 57.5 µM (top of the series)
Summary of the method: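 Transcriptional readout in edited S16(c9) cells: two luciferases reported from the Pmp22 locus, measured in turn after 24 h compound incubation.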
Potency is the fitted concentration of half-maximal effect; tags give direction and shape of the fitted curve.

Compound	Potency
COc1ccc(-c2cc(C(=O)Oc3ccc(Br)cc3)c3ccccc3n2)cc1	inactive
Nc1nc(N)c(S(=O)(=O)c2ccccc2)c(Nc2ccccc2)n1	inconclusive [phenotype inactive, single point]
Cc1cc(C)c(S(=O)(=O)NCC(c2ccco2)S(=O)(=O)c2ccccc2)c(C)c1 (configuration not stated)	inactive
COC(=O)c1ccc(Cn2nnc3c(=O)[nH]c(C4CCCN(S(=O)(=O)c5ccccc5Cl)C4)nc32)cc1 (configuration not stated)	inconclusive [phenotype inactive, single point]
COC(=O)c1sc2cccc(F)c2c1S(=O)(=O)N1CCN(c2cccc(C)c2)C(C)C1 (configuration not stated)	inconclusive [phenotype inactive, single point]
COc1ccc(C(=O)c2c(N)c(C(=O)Nc3cccc(OC)c3)c3ccccn23)cc1	inconclusive [phenotype inactive, single point]
Cc1cccc(N2CCN(C(=O)c3cnc(N4CCCC4)nc3C)CC2)c1C	inconclusive [phenotype inactive, partial curve, poor fit]
CCN1C(=O)c2ccccc2Sc2ccc(NC(=O)Nc3cccc([N+](=O)[O-])c3C)cc21	inconclusive [phenotype inactive, single point]
O=C(Nc1ccc2oc(-c3cc(Br)ccc3Cl)nc2c1)c1cc2ccccc2o1	inconclusive [phenotype inactive, partial curve]
CCOc1ccc(NC(=O)C2CCN(C(=O)N3CC(C)Oc4ccc(Cl)cc43)CC2)cc1 (configuration not stated)	inconclusive [phenotype inactive, single point]
O=C(CSC1=Nc2ccccc2C2=NC(CCC(=O)NC3CCCCC3)C(=O)N12)Nc1cccc(C(F)(F)F)c1 (configuration not stated)	inconclusive [phenotype inactive, partial curve]
COc1ccc(C(=O)Nc2cc3c(cc2C(=O)c2ccccc2Cl)OCCO3)cc1	inactive
COC(=O)c1ccc2c(=O)n(CCCCCC(=O)N3CCN(c4cccc(C)c4C)CC3)c(=O)[nH]c2c1	inconclusive [phenotype inactive, single point]
CCOc1cc(CNc2ccc(O)cc2)cc(Cl)c1OCc1ccccc1	inconclusive [phenotype inactive, partial curve, poor fit]
COc1ccc(NC(=O)C2=CC(c3ccc4c(c3)OCO4)=NS(=O)(=O)N2C)cc1OC	inactive
COc1cc([C@@H]2Nc3c(F)cccc3[C@@H]3C=CC[C@@H]32)cc(Br)c1OC	inconclusive [phenotype inactive, single point]
COc1ccc(Cl)cc1C(=O)NCCS(=O)(=O)N1CCN(c2ccccc2OC)CC1	inconclusive [phenotype inactive, single point]
COc1cc(-c2cc3n(C)c(C)c(CCC(=O)NC4CCCCC4)c(=O)n3n2)cc(OC)c1OC	inactive
CCN(Cc1ccccc1)S(=O)(=O)c1ccc(F)c(C(=O)Nc2cc(C)ccc2OC)c1	inconclusive [phenotype inactive, single point]

Compound	Potency
COc1ccc(CNC(=O)C2CCN(C(=O)N3CCOc4ccc(Cl)cc43)CC2)cc1	inconclusive [phenotype inactive, partial curve, poor fit]
CCN1CCOC(=O)C1CC(=O)Nc1ccc(Br)cc1 (configuration not stated)	inconclusive [phenotype inactive, single point]
N#Cc1nc(-c2ccc(COc3ccc(Cl)cc3)o2)oc1N1CCC(C(N)=O)CC1	inconclusive [phenotype inactive, single point]
COc1ccc(OC)c(C2=NS(=O)(=O)N(C)C(C(=O)Nc3ccc(F)cc3F)=C2)c1	inconclusive [phenotype inactive, single point]
CC(=O)c1ccc(N2CCN(c3ccc4cc(S(=O)(=O)N5CCCCC5)ccc4n3)CC2)cc1	inconclusive [phenotype inactive, single point]
Cc1ccc(Nc2nnc(-c3ccc(C)c(S(=O)(=O)N4CCOCC4)c3)c3ccccc23)cc1	inconclusive [phenotype inactive, single point]
O=C(Nc1cccc(-c2nc3ccccc3o2)c1)C(F)(F)F	active: 8 µM
Cc1cc(-c2ccccc2)n2nc(-c3ccccc3)cc2n1	inactive
CCOC(=O)c1c(NC(=O)COc2cccc(C)c2C)sc(C(C)=O)c1C	inactive
CCc1cnc2c(c1SCC(=O)NCc1ccc(F)cc1)c(=O)n(C)c(=O)n2C	inactive
COc1ccc(C2C=C(c3ccccc3)Nc3nc(NC(=O)/C=C/c4ccccc4Cl)nn32)cc1 (configuration not stated)	inconclusive [phenotype inactive, partial curve, poor fit]
COc1ccc(-c2cc(-c3ccccc3)nc(SCC(=O)Nc3ccccc3F)c2C#N)cc1	inactive
CC(=O)Nc1c(C)nn(-c2ccccc2)c1N1CCC(C(=O)NCc2ccccc2Cl)CC1	inconclusive [phenotype inactive, single point]
Cc1ccc2nc(-c3cc(NC(=O)COc4ccc(C)c(C)c4)ccc3Cl)oc2c1	inactive
Cc1ccc(NC(=O)N2CCN(c3cc(-c4noc(C)n4)ccc3C)CC2)c(F)c1	inconclusive [phenotype inactive, single point]
CC(=O)c1cccc(NS(=O)(=O)c2cc3c(cc2C)N(C(C)=O)CCO3)c1	inactive
O=C(NCCC1=CCCCC1)C1CCN(C(=O)N2CCOc3ccc(Cl)cc32)CC1	inconclusive [phenotype inactive, single point]
CCn1nc(C)c2c(-c3ccccc3)cc(=O)n(C(C)C(=O)NCc3ccccc3OC)c21 (configuration not stated)	inconclusive [phenotype inactive, single point]
CCOC(=O)N1CCN(Cc2nc3cc(NC(=O)c4cccc(C)c4)ccc3n2C(C)C)CC1	inconclusive [phenotype inactive, partial curve]

Compound	Potency
COc1cccc(NC(=O)Cn2cc(S(=O)(=O)Cc3ccccc3F)c3ccccc32)c1	inconclusive [phenotype inactive, single point]
Fc1ccc(-n2ncc3c(Nc4cccc(Cl)c4)ncnc32)cc1	inconclusive [phenotype inactive, single point]
COc1ccccc1NC(=O)Cn1c(=O)c(CNc2ccccc2)cc2cc(OC)c(OC)cc21	inconclusive [phenotype inactive, single point]
Cc1cc(OC(C)C(=O)N(Cc2ccc(N(C)C)cc2)Cc2ccco2)ccc1Cl (configuration not stated)	inconclusive [phenotype inactive, single point]
CC1CCCN(CCCNC(=O)c2ccc3c(c2)N(Cc2ccc(Cl)cc2)C(=O)c2ccccc2S3(=O)=O)C1 (configuration not stated)	inconclusive [phenotype inactive, partial curve]
COCCNC(=O)c1sc2ncccc2c1-n1c(C)ccc1C	inconclusive [phenotype inactive, single point]
CCn1c(=O)cc(OCC(=O)N2CCN(c3ccc(C)cc3)C(C)C2)c2ccccc21 (configuration not stated)	inconclusive [phenotype inactive, partial curve]
CCn1c(=O)cc(OCC(=O)NCc2ccccc2OC)c2ccccc21	inconclusive [phenotype inactive, single point]
Cc1cccc(NC(=O)CN2C(=O)C(c3ccccc3)=NC23CCC(C)CC3)c1 (configuration not stated)	inconclusive [phenotype inactive, single point]
Cc1[nH]c2ccc(Br)cc2c1CCNC(=O)c1cc2ccccc2oc1=O	inconclusive [phenotype inactive, single point]
COC(=O)CN1C(=O)C(C)(C)c2cc(S(=O)(=O)Nc3ccc(Br)cc3F)ccc21	inactive
Cc1cc(C)cc(-n2cnc3cc(C(=O)NC4CCCCCC4)ccc32)c1	inconclusive [phenotype inactive, single point]
CC(=O)C1=C(c2ccccc2)N(C(C)=O)n2c(nnc2C2CCCCC2)S1	inconclusive [phenotype inactive, single point]
CCCCN(C)CCCNC(=O)C1CCN(S(=O)(=O)CC)CC1	inactive
CC(C)c1ccc(NC(=O)Cn2c(=O)n(CC3CCC(C(=O)NCCc4ccccc4)CC3)c(=O)c3ccccc32)cc1 (configuration not stated)	inconclusive [phenotype inactive, single point]
Cc1cccc(CNC(=O)c2ccc(N3Cc4ccccc4Oc4ncccc43)s2)c1	inconclusive [phenotype inactive, single point]
COc1cc(Nc2nc(SCc3ccc(Cl)cc3)nc3ccccc23)cc(OC)c1	inconclusive [phenotype inactive, single point]
O=C(CCn1c(=O)c2cccn2c2cccnc21)N1CCN(c2cccc(C(F)(F)F)c2)CC1	inconclusive [phenotype inactive, partial curve]
Cc1oc(-c2ccc(C(=O)Nc3ccc(F)cc3)cc2)nc1COc1ccccc1	inactive
